# Source: PubChem BioAssay AID1508624 (National Center for Advancing Translational Sciences (NCATS), 2021)
# The whole screen tested about 48,000 compounds, of which about 120 (0.25%) were called active. Inconclusive results (about 4%) are left out. Calls come from the whole dose curve; as a rule, active = well fitted activation curve with a large enough effect; inconclusive = small, poorly fitted or top-dose-only effect, or another doubt; inactive = no such curve, though single readings can be large or run the other way. Some of the results follow.
# Test: Primary qHTS for Identification of Small Molecule Activators of Huntingtin-Antisense Promoter Activity; note: nearly all actives have a fitted effect of over 55% in size
# Details: HEK293 HTT-AS promoter firefly luciferase reporter, 24 h; series mostly up to 57.5 µM; activity change, positive = activation: at the top concentration
# How it was run: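 Quantitative HTS used concentration series of up to 57.5 uM final on HEK293 luciferase reporter cells, 24 h at 37 degrees C. Readout was Dual-Glo firefly luminescence.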
row,Compound,"activity change, positive = activation"
1,CCN1CCN(C(=O)c2cnn(-c3cccc(Cl)c3)c2C2CCN(C(=O)OC(C)(C)C)CC2)CC1,inactive: -18.8%
2,Cc1ccsc1C(=CCCN1CCC[C@@H](C(=O)O)C1)c1sccc1C,inactive: -1.67%
3,CCCn1c(CNC(=O)c2ccc(F)cc2)nc2ccccc21,inactive: -7.91%
4,Cc1ccc2oc(-c3ccc(C)c(NC(=O)c4ccc(N5CCC(C)CC5)c([N+](=O)[O-])c4)c3)nc2c1,inactive: 21.1%
5,O=C(CCCN1C(=O)C(c2ccccc2)Oc2cccnc21)Nc1ccccc1C(F)(F)F (stereo not drawn),inactive: -15.2%
6,O=c1c2cc3c(cc2n(Cc2ccc(F)cc2)c(=O)n1Cc1nc(-c2ccccc2)no1)OCO3,inactive: -14.3%
7,Cc1cccc(NC(=O)c2ccc3snnc3c2)c1C,inactive: 0.105%
8,Cc1cccc(NC(=O)c2cc3c(=O)n4cccc(C)c4nc3s2)c1C,inactive: -23%
9,CC(C)CN(CCCNC(=O)CN1N=C(c2ccc(Cl)cc2)CCC1=O)CC(C)C,inactive: -2.65%
10,CCOC(=O)N1CCN(Cc2nc3cc(NC(=O)c4ccccc4[N+](=O)[O-])ccc3n2C(C)C)CC1,inactive: -46.3%
11,Cc1ccc(-n2c3nc(=O)[nH]c(=O)c-3cc3c(C)nn(-c4ccccc4)c32)cc1Cl,inactive: -6.14%
12,O=C(NC1CCCCC1)c1ccc(Cn2c(SCc3ccc(F)cc3)nc3cccnc32)cc1,inactive: 0.596%
13,Cc1ccc2c(c1)-c1onc(C(=O)N3CCN(c4ccc(Cl)cc4)CC3)c1CO2,inactive: -9.28%
14,Cc1cccc(C)c1NC(=O)NCCc1c[nH]c2ccccc12,inactive: -14.4%
15,CCCNC(=O)C1CCC(Cn2c(=O)c3sccc3n(Cc3ccccc3F)c2=O)CC1 (stereo not drawn),inactive: -7.6%
16,COCCCn1c(=N)c(C(=O)NCc2ccco2)cc2c(=O)n3ccccc3nc21,inactive: -10.6%
17,CNCCCN1c2ccccc2CCc2ccccc21,inactive: -14.7%
18,COc1ccccc1CNC(=O)CCn1nc(C)c2c(C)n(-c3ccccc3)nc2c1=O,inactive: 0%
19,O=S(=O)(c1ccccc1)c1nnn2c1nc(NCc1ccc(F)cc1)c1sccc12,inactive: -4.48%
20,CCCCN(CC)C(=O)CSc1nc2n[nH]c(C)c2c(=N)n1-c1cccc(OC)c1,inactive: -43.6%
21,Cc1oc(-c2ccc(Cl)cc2)nc1CS(=O)CC(=O)N1CCN(c2cccc(C(F)(F)F)c2)CC1 (stereo not drawn),inactive: -45%
22,COc1cccc(N2CCN(c3ncnc4c3nc3n4CCCCC3)CC2)c1,inactive: -82%
23,CSC1=NC2(CCN(C(=O)NC3CCCCC3)CC2)N=C1c1ccc(C)cc1,inactive: -19.2%
24,COc1ccc(N2Cc3cccc(C(=O)Nc4cc(C)cc(C)c4)c3C2=O)cc1,inactive: 3.22%

row,Compound,"activity change, positive = activation"
1,CCNC(=O)Nc1ccc(-c2nc3c(c(N4CCOC[C@H]4C)n2)CCN(C2COC2)C3)cc1,inactive: -24.1%
2,O=C(C1COc2ccccc2O1)N1CCN(c2nc3ccc(F)cc3s2)CC1 (stereo not drawn),inactive: 0.479%
3,Cc1noc(-c2ccc(-c3noc(-c4cccc(F)c4)n3)cc2)n1,inactive: 10.9%
4,Cn1c(=O)c2c(nc(SCC(=O)Nc3ccccc3)n2Cc2ccccc2F)n(C)c1=O,inactive: -1.98%
5,CCN(CC)S(=O)(=O)c1nnc(NC(=O)COc2ccccc2F)s1,inactive: -19.2%
6,Nc1c(C(=O)Nc2ccc(OC(F)(F)F)cc2)nnn1Cc1ccccc1,inactive: 1.34%
7,Fc1ccc(CNc2ncnc3onc(-c4ccc(F)cc4)c23)cc1,inactive: -33%
8,CCc1c(CN2CCN(c3cccc(C)c3C)CC2)csc1C,inactive: -10.2%
9,CCc1cccc(C)c1Nc1c(-c2ccccc2)nc2sccn12,inactive: -28.8%
10,O=C(C1COc2ccccc2O1)N(Cc1cccnc1)c1nc2ccc(Cl)cc2s1 (stereo not drawn),inactive: 18.9%
11,Cc1ccc(C#N)c(=O)n1CC(=O)Nc1ccccc1C(F)(F)F,inactive: -13.6%
12,O=C(NCc1ccccc1Cl)C1CCCN(S(=O)(=O)c2cccc3nsnc23)C1 (stereo not drawn),inactive: -15.7%
13,COc1ccc(OC)c(CNC(=O)c2c3c(nc4ccccc24)C(=O)N(C2CCCCC2)C3)c1,inactive: 5.83%
14,CCC(=O)N1CCc2cc(Br)cc(S(=O)(=O)N3CCN(c4ccc(C)cc4)C(C)C3)c21 (stereo not drawn),inactive: -2.85%
15,CCOC(=O)c1c(C)[nH]c(C)c1S(=O)(=O)N1CCC(C(=O)N2CCN(c3ccccc3)CC2)CC1,inactive: 9.16%
16,CCOC(=O)c1c(C)[nH]c(C)c1S(=O)(=O)N1CCC(C(=O)N2CCN(c3cccc(Cl)c3)CC2)CC1,inactive: -22.9%
17,CCOC(=O)c1c(S(=O)(=O)N2CCC(C(=O)NCc3ccc(F)cc3)CC2)c(C)n(C)c1C,inactive: -12.1%
18,C=Cc1ccc(Cn2c(C(=O)O)c(CNC3CCCC3)c3ccc(C)cc32)cc1,inactive: -20.5%
19,CN(C)S(=O)(=O)c1ccc2c(c1)N(CC(=O)Nc1ccc(OC(F)(F)F)cc1)C(=O)CS2,inactive: -19.3%
20,Cc1cccc(N(C)C(=O)CCS(=O)(=O)c2ccc3c(c2)oc(=O)n3C)c1,inactive: -4.03%
21,COc1ccc(OCC(=O)NC2CC(=O)N(c3cccc(OC)c3)C2)cc1 (stereo not drawn),inactive: -7.46%
22,CCCN(CCC)CC(O)Cn1cc(/C=C/C(=O)c2ccc(C)cc2)c2ccccc21 (stereo not drawn),inactive: -21%
23,CC(C)(C(=O)NCC(F)(F)C(F)(F)F)C(=O)N[C@@H]1C(=O)Nc2ccccc2-c2ccccc21,inactive: -37%
24,CCN(CC)CCOc1ccccc1C(=O)CCc1ccccc1,inactive: -14.4%

row,Compound,"activity change, positive = activation"
1,COc1ccc(NC(=O)CN2CCN(Cc3ccc(F)cc3)S2(=O)=O)cc1Cl,inactive: -11.6%
2,COc1ccc(NC(=O)c2cc(S(=O)(=O)N3CCCCCC3)cn2C)c(OC)c1,inactive: -14.6%
3,CC(C(=O)NCc1ccc(Cl)cc1)n1ccc2cc(S(=O)(=O)N3CCCCCC3)ccc21 (stereo not drawn),inactive: -3.51%
4,C=CC(=O)Nc1cccc(Nc2nc(NC3CCC(N(C)C)CC3)nc3c2ncn3C(C)C)c1 (stereo not drawn),inactive: -42.4%
5,CCCCNc1nc2c(c(=O)n(C)c(=O)n2C)n1CC(O)COc1ccccc1C (stereo not drawn),"inactive: 9.14% [at 11.5 µM, percent change from vehicle, -100% = no light]"
6,O=C(Nc1ccc(F)c(Cl)c1)C1CCN(S(=O)(=O)c2ccc3[nH]c(=O)ccc3c2)CC1,inactive: -39.7%
7,CCOC(=O)c1c(NC(=O)c2ccc(Br)cc2)sc2c1CCCC2,inactive: -2.72%
8,O=C(O)c1cccc(Nc2ncnc3ccc(Br)cc23)c1,inactive: -13%
9,Cc1nn(C)c2c1c(C(F)(F)F)cc(=O)n2CC(=O)N1CCCCC1,inactive: 3.12%
10,Cc1ccc(C(=O)Nc2nc3n(n2)C(c2ccc(F)cc2)C=C(c2ccccc2)N3)cc1 (stereo not drawn),inactive: -29.1%
11,COc1ccc(C(=O)Nc2nnc(S(=O)(=O)N3CCCc4ccccc43)s2)cc1,inactive: 2.1%
12,Cc1ccc2nc(-c3cccc(NC(=O)c4ccc(Br)o4)c3)oc2c1,inactive: 9.57%
13,CCOc1ccccc1-n1nnc(-c2nc(-c3ccccc3C)no2)c1C,inactive: 12.3%
14,Cc1ccc(NC(=O)CSc2ccc3nnc(CCNS(=O)(=O)c4ccccc4)n3n2)cc1Cl,inactive: -21.4%
15,Cc1ccc(Cl)cc1NC(=O)N1CCC(CN2CCCCCC2)CC1,inactive: 0.935%
16,Cc1ccc2cc(CN(C)C(=O)c3cccc(Cl)c3)c(=O)[nH]c2c1,inactive: -9.81%
17,Cc1ccccc1NC(=O)c1cccc2c(=O)c3c([nH]c12)CCCC3,inactive: -14.7%
18,CCOCCn1ccc2c(OCC(=O)NCc3ccc(C)cc3)cccc2c1=O,inactive: -21.9%
19,CN(C)CCNC(=O)c1ccc2c(c1)N(Cc1ccccc1)C(=O)c1ccccc1S2(=O)=O,inactive: -8.16%
20,CCCSc1ncc(Cl)c(C(=O)NCc2ccc(OC)cc2)n1,inactive: -25.8%
21,COc1ccc(-c2cn3nc(N4CCCC(C(=O)Nc5cccc(Cl)c5C)C4)sc3n2)cc1 (stereo not drawn),inactive: -23.3%
22,O=C1c2[nH]nc(-c3ccccc3O)c2C(c2cccc(O)c2)N1Cc1ccncc1 (stereo not drawn),inactive: 9.47%
23,O=C(Cn1cc(C(=O)c2ccncc2)c(=O)c2cc(F)ccc21)Nc1ccc(Cl)cc1,inactive: -15.7%
24,COCCCNC(=O)N1[C@H](c2cccs2)[C@@H](C)C(=O)[C@@H](C)[C@@H]1c1cccs1,inactive: -18.9%

row,Compound,"activity change, positive = activation"
1,Cc1ccc2c(c1)N(S(=O)(=O)c1cc(-c3onc(C)c3C)ccc1C)CCO2,inactive: -70.1%
2,O=C(CN1C(=O)COc2ccc(S(=O)(=O)N3CCCC3)cc21)N1CCN(c2ccc(Cl)cc2)CC1,inactive: -29.3%
3,COc1cccc(-n2cc(C(=O)OCc3ccc(F)c(F)c3)c3ccccc3c2=O)c1,inactive: -20.5%
4,COc1ccccc1CNC(=O)CCn1c(=O)c2ccccc2n(CC(=O)Nc2ccc(Br)cc2F)c1=O,inactive: -55.5%
5,CCCN(C(=O)c1cc2c(=O)oc3ccccc3c2s1)c1cccc(Cl)c1,inactive: -19.2%
6,CCOC(=O)N1CCN(C(=O)CN(c2cccc(Cl)c2)S(=O)(=O)c2ccccc2)CC1,inactive: -24.8%
7,CCCc1cc(=O)n2[nH]c(NC(=O)c3ccccc3Cl)nc2n1,inactive: 9.03%
8,Cc1ccc(NC(=O)N2CCc3cc(S(=O)(=O)N4CCC(C)CC4)ccc32)cc1F,inactive: -9%
9,CCOC(=O)c1ccc(N2C(=O)c3[nH]nc(-c4ccc(OC)cc4)c3C2c2ccccc2Cl)cc1 (stereo not drawn),inactive: -0.158%
10,COc1ccc(C2c3c(n(C)c4ccccc34)C(=O)N2CC(=O)Nc2cc(Cl)ccc2C)cc1 (stereo not drawn),inactive: -37.2%
11,Cc1ccc2onc(CC(=O)Nc3cccc(C(F)(F)F)c3)c2c1,inactive: -32.3%
12,O=C(Nc1ccccc1)N(Cc1cccs1)c1ccc(F)cc1,inactive: -16.6%
13,CCOC(=O)CSc1nc2cc3c(cc2c(=O)n1CCCC(=O)NCCc1ccc(OC)c(OC)c1)OCO3,inactive: -10.5%
14,C[n+]1ccccc1/C=N/O,inactive: 0.354%
15,COc1cccc(CNC(=O)c2cc(S(=O)(=O)N3CCCCCC3)cn2C)c1,inactive: -28.5%
16,CCOC(=O)c1sc(N2C(=O)c3oc4ccc(C)cc4c(=O)c3C2c2ccccc2F)nc1C (stereo not drawn),inactive: -8.82%
17,CCc1cccc(NS(=O)(=O)c2ccc3c(c2)n(C)c(=O)c(=O)n3C)c1,inactive: -9.76%
18,CCOC(=O)c1c(NC(=O)CSc2cn(CCNC(=O)c3ccc(OC)c(OC)c3)c3ccccc23)sc2c1CCCC2,inactive: -26.6%
19,Cc1ccc(CNC(=O)CCCn2nc(C)c3c(C)n(-c4ccccc4)nc3c2=O)cc1,inactive: -3.58%
20,Nc1ccc(/C=C/c2ccc(N)cc2S(=O)(=O)O)c(S(=O)(=O)O)c1,"inactive: -0.0528% [at 0.74 µM, percent change from vehicle, -100% = no light]"
21,Cc1cccc(Nc2ccccc2C(=O)O)c1C,inactive: 2.66%
